Reference: ChEMBL document CHEMBL4888484, “Replenishing the malaria drug discovery pipeline: Screening and hit evaluation of the MMV Hit Generation Library 1 (HGL1) against asexual blood stage Plasmodium falciparum ,using a nano luciferase reporter read-out” (2022)
Among all 150,000 compounds or so, about 540 (0.36%) showed an effect of 50% or more. Some of the results follow.

System: Plasmodium falciparum
Assay: Primary screen in NF54 nanoGlo assay, in single point, at 2uM, 72h; a lower Z score goes with more inhibition
Type: functional, Erythrocyte
Details: timepoint 72 hour

| SMILES | % Inhibition | Z score |
| --- | --- | --- |
| Fc1ccc([C@@H]2COCCN2Cc2nnc(C3CC3)o2)cc1 | -7% | 0.75 |
| NS(=O)(=O)c1ccc(-c2nc(-c3cccnn3)no2)cc1 | -15% | 1.46 |
| CN(Cc1cscn1)C(=O)Cn1c(C2CCCCC2)nc2ccccc21 | 2% | -0.24 |
| O=C(Nc1cnn(CC(=O)N2CCC(O)(c3cccc(C(F)(F)F)c3)CC2)c1)c1ccco1 | -12% | 1.52 |
| O=C1c2ccccc2N[C@H](c2cnc(N3CCCC3)nc2)N1CC(F)(F)F | -12% | 1.18 |
| CCC(C)(C)NS(=O)(=O)c1cccs1 | -8% | 0.99 |
| Cc1cncc(C(=O)OCCN(C)CC(F)(F)F)c1 | -2% | 0.16 |
| CC(C)(C)N1CC[C@H](NC(=O)NCc2nc(-c3ccccc3F)cs2)C1 | 0% | -0.03 |
| COc1ccc(NC(=O)c2sc(Nc3cc(C)ccn3)nc2C)cc1OC | -2% | 0.32 |
| Cn1nc(C(=O)N2CCCC2(C)C)c(O)c1C(=O)N1CCCC1(C)C | 0% | 0.01 |
| Cc1ncc(CS(=O)(=O)CC(=O)NCc2sccc2C)s1 | -7% | 1.13 |
| Cc1nc(NC(=O)[C@H]2CC2(Cl)Cl)ccc1Br | -3% | 0.49 |
| Cc1nnc([C@H](C)Nc2ccc(OCc3ccccc3)nc2)o1 | -11% | 1.39 |
| Fc1cncnc1N1CCCN(c2ccc3nncn3n2)CC1 | 13% | -2.28 |
| Cn1cc(C(NC(=O)c2cc3ncccn3n2)[C@H]2C[C@H](O)C2)cn1 (stereo partly drawn) | -13% | 2.13 |
| CC(C)c1ccccc1OCC(O)CN1CCCN2CCCC2C1 (stereo not drawn) | 2% | -0.3 |
| O=c1c2ccccc2nnn1C[C@H]1CC[C@H](C(=O)Nn2cnnc2)CC1 | 1% | -0.19 |
| Cn1cc(-c2cc(-c3cnn(C)c3)n(S(=O)(=O)c3cccs3)n2)cn1 | 34% | -3.8 |
| CCOC(=O)C1=C(C(=O)OCC)SC(=C2C(=S)C(C)(C)N(C(C)=O)c3ccccc32)S1 | -4% | 0.45 |
| CCc1nc(C)ccc1OCc1ncc(C)o1 | -7% | 1.05 |
| Cn1ccnc1[C@@H](NC(=O)c1cc(C2CC2)no1)C1CC1 | -12% | 1.43 |
| O=C1CCC(C(=O)N2CCCCCC2C=Cc2ccccc2)N1 (stereo not drawn) | -11% | 1.83 |
| CC(C)Cc1noc(CN(C)Cc2ccc3c4c(cccc24)C(=O)OC3)n1 | -11% | 1.86 |
| Cc1nc(Nc2ccccn2)cc(C(F)(F)F)n1 | -6% | 0.67 |
